Experimental data taken from PubChem BioAssay AID488969 (Vanderbilt High Throughput Screening Facility, 2010).
The full ranking holds about 110,000 compounds; the median of “z-score” is about -0.1, and the highest 2% start at about 2. The list shows a part of the results. The source made the active and inactive calls.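 The calls were made as follows: active = z-score in the third read window above 3 or below -3; inactive = the rest.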

target: Metabotropic glutamate receptor 8 (Rattus norvegicus) (UniProt P70579); assay: rat mGluR8 modulators via GIRK flux, primary screen, cell-based, thallium flux, HTS (AID 488969); details: HEK293 rat mGluR8, GIRK (G protein-gated inwardly rectifying potassium channel) thallium flux, FluoZin2; at 10 µM; stronger effect = higher value; submaximal glutamate (EC20) added with thallium
Chain of UniProt P70579 (P70579 whole entry, looked up): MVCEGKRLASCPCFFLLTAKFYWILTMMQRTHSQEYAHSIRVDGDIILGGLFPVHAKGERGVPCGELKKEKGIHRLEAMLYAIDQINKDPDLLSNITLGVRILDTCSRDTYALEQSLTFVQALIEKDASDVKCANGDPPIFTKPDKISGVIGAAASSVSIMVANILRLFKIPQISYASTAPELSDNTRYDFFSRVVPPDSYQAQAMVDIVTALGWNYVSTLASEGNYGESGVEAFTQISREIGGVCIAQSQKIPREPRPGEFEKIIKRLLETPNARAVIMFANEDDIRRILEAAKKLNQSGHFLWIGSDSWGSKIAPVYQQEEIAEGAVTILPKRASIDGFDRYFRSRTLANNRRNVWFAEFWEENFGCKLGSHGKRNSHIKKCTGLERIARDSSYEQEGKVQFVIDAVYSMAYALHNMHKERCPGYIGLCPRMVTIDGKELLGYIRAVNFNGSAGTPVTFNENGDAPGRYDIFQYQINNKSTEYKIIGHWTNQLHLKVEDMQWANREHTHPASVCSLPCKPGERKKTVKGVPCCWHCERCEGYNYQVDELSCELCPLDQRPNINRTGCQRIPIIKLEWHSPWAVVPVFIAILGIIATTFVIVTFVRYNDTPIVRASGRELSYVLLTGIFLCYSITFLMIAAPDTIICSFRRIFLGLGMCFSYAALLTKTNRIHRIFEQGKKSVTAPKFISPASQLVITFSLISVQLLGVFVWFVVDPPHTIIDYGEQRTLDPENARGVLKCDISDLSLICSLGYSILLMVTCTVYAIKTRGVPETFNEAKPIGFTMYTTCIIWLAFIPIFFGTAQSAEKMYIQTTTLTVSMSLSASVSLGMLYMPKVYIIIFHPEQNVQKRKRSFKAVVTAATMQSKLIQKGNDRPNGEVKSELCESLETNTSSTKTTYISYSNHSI

SMILES	z-score
COCCNC(=O)NC(=O)COC(=O)C12CC3CC(CC(NC(C)=O)(C3)C1)C2	0.0811
O=C1CC(SCc2nc3ccccc3[nH]2)C(=O)N1c1ccc(F)c(Cl)c1 (configuration not stated)	-0.178
CC(C)CCNC(=O)C12CN(Cc3ccccc3)CC1C(c1ccc([N+](=O)[O-])cc1)=NO2 (configuration not stated)	-0.311
COC(=O)c1ccc(C(=O)OC)c(NC2=NS(=O)(=O)c3ccccc32)c1	1
CC(=O)c1cc(NC(=O)c2ccccc2)c(=O)oc1/C=C/N(C)C	-0.179
CSc1ncc(Cl)c(C(=O)Nc2ccccc2Cl)n1	-0.152
COc1ccc(CC(=O)Nc2ccc(/C(C)=N/NC(=O)c3cccc([N+](=O)[O-])c3)cc2)cc1	0.0561
S=c1[nH]c2cc(Cl)ccc2s1	active: 14.9
CCCCC(=O)Nc1cccc(-c2nc3ncccc3o2)c1	0.393
Cc1nn(C)c(Oc2cccc(Cl)c2)c1C(=O)Nc1ccc(F)cc1F	-0.15
COC(=O)c1nn(-c2ccccc2)c(=O)cc1Oc1ccc(Cl)cc1	-0.311
COc1ccc(OCc2nn3c(-c4ccccn4)nnc3s2)cc1	-0.417
C=CCn1c(SCc2ccc(C#N)cc2)nnc1-c1ccccc1	0.0791
COc1ccc(C(NC(=O)c2ccco2)c2ccc(OC)c(OC)c2)cc1 (configuration not stated)	-0.189
CCOC(=O)c1nnn(CC(=O)Nc2cccc(Cl)c2C)c1C(=O)OCC	2.12
CCOC(=O)c1ccc(NC(=O)CC2S/C(=N/N=C/c3c[nH]c4ccccc34)NC2=O)cc1 (configuration not stated)	-0.326
O=C(N1CCN(c2ccccc2)CC1)C(F)(F)C(F)F	-0.395
CCOC(=O)c1sc(NC(=O)c2c(C)nn(Cc3ccccc3)c2C)cc1C	-0.786
COc1ccc(C(=O)N2c3ccccc3CC2C)cc1OC (configuration not stated)	-0.0572
O=C(/C=C/c1ccccc1)N/C(=C/c1ccccc1)C(=O)NCCCO	-0.106
Cc1nonc1NC(=O)Nc1cccnc1	0.0982
CC(=O)c1ccc(NC(=O)c2ccc(CSc3ccccc3)o2)cc1	-0.442

SMILES	z-score
O=C(Nc1ccc(-c2noc(-c3cccs3)n2)cc1)c1cccnc1	0.207
COc1ccc(C2CC(c3ccccc3)=NN2C(=O)COC(=O)c2cccnc2)cc1 (configuration not stated)	0.0851
COc1ccccc1CC1(C)NC(=O)N(CC(=O)N2CC(C)OC(C)C2)C1=O (configuration not stated)	-0.479
COc1ccc(OC)c(CNc2ccc(F)c(Cl)c2)c1	0.0546
CC(=O)N(CCC(Cc1ccccc1)c1ccc2c(c1)OCO2)Cc1ccc(Cl)cc1 (configuration not stated)	0.0948
COc1ccc(-c2nnc(-c3cc4ccccc4oc3=O)o2)cc1	0.115
CCSC1=N/C(=C\c2ccc3c(c2)OCO3)C(=O)S1	-0.606
Cc1ccc(S(=O)(=O)NCCCC(=O)C=[N+]=[N-])cc1	0.393
CCC(=O)N1CCNC(=O)C1CC(=O)Nc1ccc(C)c(Cl)c1 (configuration not stated)	-0.176
CCCC(=O)c1cc2c(cc1NC(=O)c1cccs1)OCCO2	0.269
O=C(/C=C/Nc1ccc(F)cc1F)c1cccs1	0.000815
Cc1onc(-c2ccccc2)c1C(=O)NC(=S)NNC(=O)c1ccc(O)cc1O	0.439
NC(=O)C1(N2CCCCC2)CCN(C(=O)CCCn2c(=O)[nH]c3ccsc3c2=O)CC1	0.207
Cc1ccc2oc(=O)c(/C=C(\O)c3sc(C)nc3C)nc2c1	-0.168
O=C(Cn1c(=O)n(Cc2ccco2)c(=O)c2c3c(sc21)CCCCC3)Nc1ccccc1	-0.747
Cn1c(=O)c2c(nc(NC3CCCCC3)n2CC(O)COc2ccccc2)n(C)c1=O (configuration not stated)	-0.00194
COc1ccc(-c2noc(C3CCCN(C(=O)CCc4ccccc4)C3)n2)cc1 (configuration not stated)	-0.776
CCCCN(CC)C(=O)c1ccc(Cl)c(Cl)c1	0.066
COc1cc2c(cc1OC)C(C(=O)NCc1cccnc1)C(c1cccnc1)N(C)C2=O (configuration not stated)	0.233
CCOC(=O)CNC(=O)CSc1nc2cccnc2n1CC	0.216
Cc1ccc(CC(=O)Nc2nc3c(s2)CCCC3)cc1	-0.378
O=C(COC(=O)Cc1cccc(C(F)(F)F)c1)NCC1CCCO1 (configuration not stated)	0.125

SMILES	z-score
Cn1c(=O)c2cc(S(=O)(=O)N3CCN(c4cccc(C(F)(F)F)c4)CC3)ccc2n(C)c1=O	-0.272
COc1ccc(/C=N/NC(=O)c2ccoc2C)cc1COc1ccc(Cl)cc1	-0.0725
CC(NC(=S)Nc1c(Br)cccc1OC(F)F)C(C)(C)C (configuration not stated)	-2.09
Cc1ccccc1NC(=S)NC(NC(=O)COc1ccccc1)C(Cl)(Cl)Cl (configuration not stated)	-0.000469
COc1ccc2oc(C(F)(F)C(F)F)cc(=O)c2c1	0.141
CCn1c(CCNC(=O)c2cccs2)nnc1SCC(=O)Nc1nc(-c2ccccc2)cs1	0.136
COc1ccc(CNC(=O)CSc2nnc(-c3ccc(NC(C)=O)cc3)n2C)cc1	-0.168
O=C1CC(Cc2ccc(Cl)cc2)C(=O)N1c1ccccn1 (configuration not stated)	-0.00298
O=C(Nc1ccccc1C(=O)N/N=C/c1ccco1)c1ccc(Cl)cc1	0.162
C=CCn1c(Cc2csc(N)n2)nnc1SCc1ccc(C(=O)OC)cc1	0.116
CCCCCOCC1CC(C/C(C)=N/Nc2nc(-c3ccccc3)cs2)C(=O)O1 (configuration not stated)	0.38
CC(C)C1NC(=S)N(Cc2ccccc2)C1=O (configuration not stated)	0.0275
COc1ccccc1/C=C/C1(C(=O)NC2CCCC2)CC(=O)N1c1ccc(C)cc1 (configuration not stated)	0.482
Cc1nn2c(-c3cccc(NC(=O)CN4CCOCC4)c3)nnc2c2ccccc12	-0.149
O=C(COc1ccc(/C=N/NC(=O)c2cc3ccccc3o2)cc1Cl)Nc1ccccc1	0.112
O=C(O)c1ccccc1OCCOc1ccccc1	-0.0988
O=C(Nc1cc(C(F)(F)F)ccc1Cl)C(Sc1nnc(-c2cccs2)o1)c1ccccc1 (configuration not stated)	-0.0374
Nc1nc(SCC(=O)Nc2ccccc2-c2ccccc2)n[nH]1	-0.0745
CCOP(=O)(O)c1ccccc1OCCOCCOc1ccccc1P(=O)(O)OCC	0.516
Cc1cc(C)c2c(N=NN(C)C)[nH]nc2n1	-0.0768
CC(C(=O)Nc1ncn[nH]1)N1C(=O)c2ccccc2C1=O (configuration not stated)	-0.00411
Cc1ccc(CNc2cnccn2)cc1	-0.094

SMILES	z-score
Cc1cccc(C)c1NC(=O)CSc1nnc(Cc2ccccc2)o1	-0.104
CN(CC(=O)NCc1ccc(Cl)cc1)S(=O)(=O)c1cccc2cccnc12	-0.364
O=C1NC(c2ccc(-c3ccccc3[N+](=O)[O-])o2)C(C(=O)c2ccc(F)cc2)C(O)(C(F)(F)F)N1 (configuration not stated)	0.963
Cn1c(Cl)c(/C=N/OC(=O)c2ccc(Cl)cc2)c2ccccc21	0.0488
CC(=O)c1cc(NC(=O)c2cccc(C(F)(F)F)c2)c(=O)oc1/C=C/N(C)C	-0.214
CCCOc1ccc(N2C(=O)CC(N(C(=O)c3ccco3)c3ccc(OCCC)cc3)C2=O)cc1 (configuration not stated)	0.186
C/C(=C\C(=O)c1ccc(Br)cc1)NCc1ccc2c(c1)OCO2	-0.222
Cc1cc(C)c(C#N)c(SCc2ccc3c(c2)OCO3)n1	-0.00435
Brc1ccc(-c2nc(-c3ccccc3)no2)o1	0.0883
O=C(COC(=O)c1ccc(Br)o1)Nc1cccc(S(=O)(=O)N2CCCCCC2)c1	0.698
CCCC(=O)Nc1ccc(-c2cnc(-c3ccc(NC(=O)CCC)cc3)nc2)cc1	1.35
COC(=O)c1cnn(C(=O)c2cc(OC)ccc2Br)c1N	-0.687
CCOC(=O)c1cccc(NC(=O)C2CCCN(S(=O)(=O)c3cnc[nH]3)C2)c1 (configuration not stated)	-0.163
COc1ccc(C)cc1NC(=O)c1ccccc1NS(=O)(=O)c1cccc2cccnc12	2.02
CN1CCN(C(=O)CN(c2cc(C(F)(F)F)ccc2Cl)S(C)(=O)=O)CC1	2.63
COc1ccccc1CNS(=O)(=O)c1c(C)noc1C	-0.0268
O=C1OCC(c2ccccc2)=C1c1ccc(S(=O)(=O)N2CCOCC2)s1	0.412
CC(NS(=O)(=O)c1ccc(OCC(=O)Nc2cccc([N+](=O)[O-])c2)cc1)c1ccccc1 (configuration not stated)	-0.26
CCOC(=O)c1ccc(NC(=O)C2CCCN(S(=O)(=O)c3cnc[nH]3)C2)cc1 (configuration not stated)	-0.106
Cc1ccc(SCC(=O)Nc2cc(C)on2)cc1	1.3
CCOC(=O)C1CCN(C(=O)c2cn(-c3ccccc3)nc2-c2cccnc2)CC1	-0.00115
CCOC(=O)c1cc(CC)sc1NC(=O)c1cc(OCC)c(OCC)c(OCC)c1	-0.349

SMILES	z-score
Cc1ccc(OCC(=O)c2ccc3c(c2)CCCC3)cc1C	-0.12
O=C(CSc1nnc2c(Cl)cc(Cl)cn12)NC1CCS(=O)(=O)C1 (configuration not stated)	-0.0216
CS/C(=N\N(C)C(N)=O)c1ccccc1	-0.643
COC(=O)/C=C1/N/C(=N\c2nc(C)cc(C)n2)N(c2cccc(C)c2)C1=O	-0.0223
CSc1nc2ccccc2n1Cc1cccc([N+](=O)[O-])c1	0.0415
CCCCCCOc1ccc(OC(=O)c2cccnc2)cc1	0.898
O=C(CSc1nnc2ccccn12)c1ccc(OC(F)F)cc1OC(F)F	-0.0638
COc1cc(CNCc2ccccn2)ccc1OCc1c(Cl)cccc1Cl	0.675
O=C(N=C1c2ccccc2CN1c1ccccc1)c1cccc([N+](=O)[O-])c1	0.152
COC(=O)c1nnn(CC(=O)Nc2cccc(Cl)c2C)c1C(=O)OC	-0.193
COc1ccc2[nH]c(=O)c(CN(C(=O)c3cccnc3)c3ccccc3)cc2c1	-0.372
Cc1ccc(NC(=S)N2CCC(N(C)CC3CCCO3)CC2)c(C)c1 (configuration not stated)	0.396
Nc1nc(-c2ccc(Cl)cc2)cn1N	0.0703
CCOC(=O)c1c(-c2ccccc2)[nH]c2ccc(O)cc12	-0.821
CCn1nc(C(=O)N[C@@H](CCSC)c2nc3ccccc3[nH]2)c2ccccc2c1=O	-0.73
CCNc1nc(NCC)nc(N2CC(=O)N(CC(=O)OCC)C2=N)n1	-0.154
c1ccc(-c2cn3c(n2)CCc2ccc4cccnc4c2-3)cc1	-0.0599
Cc1ccc(NC(=O)c2ccc(N/N=C/c3cccc(O)c3)c([N+](=O)[O-])c2)cc1	-0.607
O=C(NCc1ccc2c(c1)OCO2)c1ccc(N2CCCCCC2)c([N+](=O)[O-])c1	-0.0656
